We go through 29 compounds from PubChem BioAssay AID1461 (National Center for Advancing Translational Sciences (NCATS), 2008).

SMILES strings stand for the structures. Values joined by “and” are separate entries in the source; they are usually repeats but may differ in a detail not shown here. Equal entries are not always repeated. The campaign covered roughly 220,000 compounds. About 2,300 (1%) were called active. Inconclusive results (about 6%) are left out. The call rests on the fitted dose curve; in most records, active means well fitted inhibition curve with a large enough effect; inconclusive means small, poorly fitted or top-dose-only effect, or effect the other way; inactive means no such curve, though single readings can be large or run the other way. The entries are a selection whose mix differs from that of the whole data set.
On the % scale 0 is the no-effect control and ±100 the full control effect; potency means the concentration at half of the fitted maximal effect.

Sequence of UniProt Q6W5P4 (Q6W5P4 whole entry, looked up): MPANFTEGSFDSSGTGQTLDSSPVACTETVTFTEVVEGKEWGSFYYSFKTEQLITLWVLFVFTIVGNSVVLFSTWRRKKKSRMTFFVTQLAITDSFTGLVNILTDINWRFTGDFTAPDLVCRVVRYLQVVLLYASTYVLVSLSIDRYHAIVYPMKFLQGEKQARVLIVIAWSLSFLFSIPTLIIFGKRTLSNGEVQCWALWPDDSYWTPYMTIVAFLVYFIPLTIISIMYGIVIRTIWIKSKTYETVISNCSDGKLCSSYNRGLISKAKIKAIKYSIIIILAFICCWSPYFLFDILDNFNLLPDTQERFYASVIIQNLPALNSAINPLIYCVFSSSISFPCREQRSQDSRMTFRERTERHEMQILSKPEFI

The target in this test is Neuropeptide S receptor (Homo sapiens) (UniProt Q6W5P4). Kind of test: qHTS Assay for Antagonists of the Neuropeptide S Receptor: cAMP Signal Transduction. Further: nearly all actives have a fitted effect of over 50% in size. As to conditions: CHO-NPSR cells, cAMP TR-FRET, antagonist mode; series mostly up to 38.3 µM; activity change, negative = inhibition: at the top concentration. The text has this:
NIH Chemical Genomics Center [NCGC] NIH Molecular Libraries Probe Production centers Network [MLPCN] MLPCN Grant: X01-DA026210-01 Assay Submitter (PI): Heilig, Markus Alexander NCGC Assay Overview: Neuropeptide S receptor (NPSR), previously known as GPR154, is a recently de-orphanized G protein coupled receptor. Its endogenous ligand is the 20 amino acids peptide Neuropeptide S (NPS). […] NPS and its receptor are found in various tissues. Specifically they are highly expressed in brain areas that have been implicated in modulation of arousal, stress and anxiety. Central administration of NPS in mice produces an unusual profile of activity by inducing wakefulness and arousal, while at the same time suppressing anxiety. Therefore, NPSR may represent a novel drug target for the treatment of sleep and anxiety disorders. To identify NPSR antagonists, we developed a cell-based cAMP assay. NPS can stimulate the production of cAMP in Chinese hamster ovary cells stably expressing NPS receptor. This change in intracellular cAMP level can be detected by a homogeneous LANCE cAMP assay based on the TR-FRET (time resolved fluorescence resonance energy transfer) between a europium-labeled cAMP tracer complex and a cAMP-specific antibody labeled with Alexa Fluor 647. The europium-labeled cAMP tracer complex is formed by the tight interaction between Biotin-cAMP (b-cAMP) and streptavidin labeled with Europium-W8044 chelate (Eu-SA). Light pulse at 320 nm excites the europium of the cAMP tracer and the energy emitted is transferred to the Alexa molecule bound to the cAMP antibody, generating a TR-FRET signal at 665 nm. Residual energy from the europium will produce a light at 620 nm. The native unlabeled cAMP from cell lysates competes with the europium-cAMP tracer for antibody binding and reversely reduces the emission signal of Alexa by interrupting FRET between the two labeled molecules. Both emission signals from the FRET donor (620 nm) and the acceptor (665 nm) can be detected by a plate reader in the TRF mode. Expression of result in fluorescence ratio (665 nm/620 nm) helps to normalize differences due to cell density and reagent dispensing. This assay was successfully optimized to a 1536-well plate format.
NCGC Assay Protocol Summary: A Chinese hamster ovary (CHO) cell line stably expressing the NPS receptor (CHO-NPSR) was obtained from Dr. Heilig lab at NIAAA and maintained in F-12 Kaighn's media (Invitrogen, Carlsbad, CA, 21127) supplemented with 10 % FBS, 100 units/ml penicillin, 100 ug/ml streptomycin and 250 ug/ml geneticin at 37C, 5% CO2 in a humidified atmosphere. Before the assay, aliquots of cells were frozen and stored at -135C. The assay was performed in 1536-well format. Data are reported for both the ratio of the two emission wavelengths, and also for the component 'donor' channel, Em2=620. Data were normalized to the controls for basal activity (DMSO only) and 100% inhibition (No NPS control). IC50 values were determined from concentration-response data modeled with the standard Hill equation. NPS 1536-well assay protocol: (1) Fresh or frozen CHO-NPSR cells were suspended in F-12 Kaighn's media supplemented with 10 % FBS, 100 units/ml penicillin and 100 ug/ml streptomycin. Cells were plated at 4 ul/well (1200 cells) to white, tissue culture treated 1536-well plates, and then cultured at 37C, 5 % CO2 for 16 to 30 hours. (2) Add 23 nl/well of compound in DMSO solution. The final titration for each compound was between 0.6 nM and 46 uM. (3) Add 1 ul of stimulation reagent (1X HBSS buffer, 5 mM HEPES, 0.1% BSA, 500 uM RO-201724 (Sigma-Aldrich, B8279), 1.5% Alexa 647-labeled anti-cAMP antibody (from Perkin Elmer), 100 nM NPS) (4) Incubation at 37C, 5 % CO2 for 60 min. (5) Add 1 ul/well detection reagent. Detection reagent was prepared by adding biotin labeled cAMP (4%), streptavidin labeled with Europium-W8044 chelate (1.33%) and TritonX-100 (1%) to detection buffer. […]
Take `C[N+]1=C(/C=C/Nc2ccccc2)C(C)(C)c2ccccc21`: the “activity change, negative = inhibition” value is inactive: 4.33% [at 46.1 µM].

As to `O=C1NC(=O)N(Cc2ccccc2)C(=O)/C1=C\C=C\c1ccco1`, the “activity change, negative = inhibition” value was inactive: -29.6%.

Turning to `C=CCN1CC[C@@]2(C)c3cc(O)ccc3CC1[C@@H]2C`, the “activity change, negative = inhibition” value is inactive: 19.9%.

As to `C[C@]12CCC(=O)C=C1CC[C@@H]1[C@@H]2CC[C@]2(C)C(=O)CC[C@@H]12`, the “activity change, negative = inhibition” value was inactive: -33.1%.

Consider `O=c1[nH]c2ccccc2n1C1CCN(CCCC(c2ccc(F)cc2)c2ccc(F)cc2)CC1`, for which the Potency is active: 12.6 µM and active: 6.31 µM.

Regarding `CN[C@H](C)[C@H](O)c1ccccc1`, the “activity change, negative = inhibition” value is inactive: 8.86%.

On to `CNCCCN1c2ccccc2CCc2ccccc21`, for which the “activity change, negative = inhibition” value was inactive: -42.7%.

For the compound `COC(=O)N1CCN(C(=O)Cc2ccc(Cl)c(Cl)c2)C(CN2CCCC2)C1` (centres undefined), the “activity change, negative = inhibition” value was inactive: -7.57%.

Turning to `O=C(O)c1nn(Cc2ccc(Cl)cc2Cl)c2ccccc12`, the “activity change, negative = inhibition” value is inactive: -23.5%.

As for `CC[C@@H](CO)NC(=O)[C@@H]1C=C2c3cccc4c3c(cn4C)C[C@H]2N(C)C1`, the Potency entry is “inactive”.

In the case of `c1ccc2c(c1)OCC(C1=NCCN1)O2` (centres undefined), the “activity change, negative = inhibition” value is inactive: 16.5%.

`OCc1cnc[nH]1`: the “activity change, negative = inhibition” value was inactive: -6.7%.

Regarding `CC(=O)[C@H]1CC[C@H]2[C@@H]3CCC4=CC(=O)CC[C@]4(C)[C@H]3CC[C@]12C`, the Potency result is “inactive”.

`CC(=O)N1CCN(c2ccc(OC[C@H]3CO[C@](Cn4ccnc4)(c4ccc(Cl)cc4Cl)O3)cc2)CC1`: the Potency result is “inactive”.

As for `COc1ccc2[nH]cc(CCN)c2c1`, the “activity change, negative = inhibition” value was inactive: 5.01%.

Turning to `CN(C)C(=O)C(CCN1CCC(O)(c2ccc(Cl)cc2)CC1)(c1ccccc1)c1ccccc1`, the “activity change, negative = inhibition” value was inactive: -20.3%.

As to `Cc1cc(C)cc(N2C(=O)NC(=O)/C(=C\c3cccn3-c3ccc(Cl)cc3)C2=O)c1`, the Potency was active: 5.01 µM.

Turning to `COc1ccc(CNC(=O)/C=C/c2ccc3[nH]cc(CCN(C)C)c3c2)cc1`, the “activity change, negative = inhibition” value is inactive: 9.07%.

With `CC(Cc1ccc(O)cc1)NCC(O)c1cc(O)cc(O)c1` (centres undefined), the “activity change, negative = inhibition” value is inactive: 5.8%.

Regarding `CC[C@]12C=CCN3CCC4(c5cc(Br)c(OC)cc5N(C)C4[C@@](O)(C(=O)OC)[C@@H]1OC(C)=O)C32` (some centres undefined), the “activity change, negative = inhibition” value is inactive: -31.8%.

Regarding `O=C1NC(=O)N(CCc2ccc(F)cc2)C(=O)/C1=C\C=C\c1ccccc1`, the “activity change, negative = inhibition” value was inactive: -58.8%.

With `COc1cc([C@@H]2c3cc4c(cc3[C@H](O)[C@H]3COC(=O)[C@H]23)OCO4)cc(OC)c1OC`, the “activity change, negative = inhibition” value is inactive: -1.95%.

For the compound `NC(N)=N/N=C/c1c(Cl)cccc1Cl`, the Potency result is “inactive”.

With `Cc1c2ccncc2c(C)c2c1[nH]c1ccccc12`, the “activity change, negative = inhibition” value was inactive: -55.3%.

In the case of `C=CCN1CCC2(C)c3cc(O)ccc3CC1C2C` (centres undefined), the “activity change, negative = inhibition” value was inactive: -6.35% [at 46.1 µM].

For the compound `O=C1NC(=O)N(c2ccccc2)C(=O)/C1=C\c1ccc([N+](=O)[O-])s1`, the “activity change, negative = inhibition” value was inactive: -5.48%.

Take `O=[N+]([O-])c1ccc(C2[C@H]3C(c4ccccc4)=NC4(CCCCC4)N23)cc1` (some centres undefined): the “activity change, negative = inhibition” value was inactive: -25.9% [at 46.1 µM].

Consider `Oc1ccc2c3c1O[C@H]1c4[nH]c5ccccc5c4C[C@@]4(O)C(C2)N(CC2CC2)CC[C@]314`, for which the “activity change, negative = inhibition” value was inactive: -7.57%.

For the compound `Cc1ccc(C(=O)N[C@@H](C)CN2C3=NC[C@@H](Cc4ccccc4)N3C[C@H]2Cc2ccc(O)cc2)cc1Br`, the “activity change, negative = inhibition” value is inactive: 31.1%.
